Test results reported in the supplement of paper PMC12423691.
Some of the results follow. Binding of human transcription factors and regulators to the viral nucleoprotein by AlphaScreen, crude cell-free proteins, amounts not normalised, one pass. Fold of the Venus control; higher = more signal. No active / inactive call. Single-pass screen; sequences are the whole Swiss-Prot entries looked up by name.

B1: NR6A1, Q15406 (protein)
chain: MERDEPPPSGGGGGGGSAGFLEPPAALPPPPRNGFCQDELAELDPGTISVSDDRAEQRTCLICGDRATGLHYGIISCEGCKGFFKRSICNKRVYRCSRDKNCVMSRKQRNRCQYCRLLKCLQMGMNRKAIREDGMPGGRNKSIGPVQISEEEIERIMSGQEFEEEANHWSNHGDSDHSSPGNRASESNQPSPGSTLSSSRSVELNGFMAFREQYMGMSVPPHYQYIPHLFSYSGHSPLLPQQARSLDPQSYSLIHQLLSAEDLEPLGTPMLIEDGYAVTQAELFALLCRLADELLFRQIAWIKKLPFFCELSIKDYTCLLSSTWQELILLSSLTVYSKQIFGELADVTAKYSPSDEELHRFSDEGMEVIERLIYLYHKFHQLKVSNEEYACMKAINFLNQDIRGLTSASQLEQLNKRYWYICQDFTEYKYTHQPNRFPDLMMCLPEIRYIAGKMVNVPLEQLPLLFKVVLHSCKTSVGKE
B2: ZKSCAN4, Q969J2 (protein)
chain: MAREPRKNAALDAQSAEDQTGLLTVKVEKEEASALTAEVRAPCSPARGPERSRQRFRGFRYPEAAGPREALSRLRELCGQWLQPEMHSKEQILELLVLEQFLTILPGNLQSWVREQHPESGEEVVVLLEYLERQLDEPAPQVPVGDQGQELLCCKMALLTQTQGSQSSQCQPMKALFKHESLGSQPLHDRVLQVPGLAQGGCCREDAMVASRLTPGSQGLLKMEDVALTLTPGWTQLDSSQVNLYRDEKQENHSSLVSLGGEIQTKSRDLPPVKKLPEKEHGKICHLREDIAQIPTHAEAGEQEGRLQRKQKNAIGSRRHYCHECGKSFAQSSGLTKHRRIHTGEKPYECEDCGKTFIGSSALVIHQRVHTGEKPYECEECGKVFSHSSNLIKHQRTHTGEKPYECDDCGKTFSQSCSLLEHHKIHTGEKPYQCNMCGKAFRRNSHLLRHQRIHGDKNVQNPEHGESWESQGRTESQWENTEAPVSYKCNECERSFTRNRSLIEHQKIHTGEKPYQCDTCGKGFTRTSYLVQHQRSHVGKKTLSQ
B3: ZNF484, Q5JVG2 (protein)
chain: MTKSLESVSFKDVTVDFSRDEWQQLDLAQKSLYREVMLENYFNLISVGCQVPKPEVIFSLEQEEPCMLDGEIPSQSRPDGDIGFGPLQQRMSEEVSFQSEININLFTRDDPYSILEELWKDDEHTRKCGENQNKPLSRVVFINKKTLANDSIFEYKDIGEIVHVNTHLVSSRKRPHNCNSCGKNLEPIITLYNRNNATENSDKTIGDGDIFTHLNSHTEVTACECNQCGKPLHHKQALIQQQKIHTRESLYLFSDYVNVFSPKSHAFAHESICAEEKQHECHECEAVFTQKSQLDGSQRVYAGICTEYEKDFSLKSNRQKTPYEGNYYKCSDYGRAFIQKSDLFRCQRIHSGEKPYEYSECEKNLPQNSNLNIHKKIHTGGKHFECTECGKAFTRKSTLSMHQKIHTGEKPYVCTECGKAFIRKSHFITHERIHTGEKPYECSDCGKSFIKKSQLHVHQRIHTGENPFICSECGKVFTHKTNLIIHQKIHTGERPYICTVCGKAFTDRSNLIKHQKIHTGEKPYKCSDCGKSFTWKSRLRIHQKCHTGERHYECSECGKAFIQKSTLSMHQRIHRGEKPYVCTECGKAFFHKSHFITHERIHTGEKPYECSICGKSFTKKSQLHVHQQIHTGEKPYRCAECGKAFTDRSNLFTHQKIHTGEKPYKCSDCGKAFTRKSGLHIHQQSHTGERHYECSECGKAFARKSTLIMHQRIHTGEKPYICNECGKSFIQKSHLNRHRRIHTGEKPYECSDCGKSFIKKSQLHEHHRIHTGEKPYICAECGKAFTIRSNLIKHQKIHTKQKPYKCSDLGKALNWKPQLSMPQKSDNGEVECSMPQLWCGDSEGDQGQLSSI

biological target: nucleoprotein N of Crimean-Congo hemorrhagic fever virus; test: AlphaScreen luminescence signal relative to Venus negative control (fold); higher = stronger binding to CCHFV N
Method: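 AlphaScreen binding of cell-free made, FLAG-GST-tagged human transcription factors and regulators (crude translation products) to biotinylated N protein; signal as fold of the FLAG-GST-Venus control. One pass.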

| Binder | AlphaScreen luminescence signal |
| --- | --- |
| B1 | 2.47 |
| B2 | 2.05 |
| B3 | 3.3 |
